Where “and” joins values, the source holds several entries; their conditions need not be identical. Identical values can stand only once.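 Grown in 96-well plates, cells were treated for 48 hours with each compound at five concentrations. Insufficient inhibition: endpoint recorded as highest concentration tested. The concentration for 50% growth inhibition is given as GI50. TGI denotes the concentration required for complete inhibition of growth.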
Tested on: NCI-H322M lung
Experiment: inhibition of tumour cell growth, NCI panel, 48 h

SMILES | GI50 | TGI [µM]
COc1cc(C2c3cc4c(cc3[C@@H](Nc3ccc(C(=O)O)cc3)C3COC(=O)[C@H]23)OCO4)cc(OC)c1O (stereo partly specified) | 36.4 µM and > 17.5 µM | > 100
Nc1c(C(=O)c2ccccc2)sc2nc(-c3cccs3)ccc12 | 0.865 µM | 21.9
CN(C(=O)c1ccc(Cl)s1)C(=S)N(C)C(=O)c1ccc(Cl)s1 | – | > 10
CC1(C)[C@@H]2C[C@H]1c1cnc(-c3ccccn3)cc1C2[C@@H]1c2cc(-c3ccccn3)ncc2[C@@H]2C[C@H]1C2(C)C (stereo partly specified) | – | > 100
CCCCCCCCCCCCCCCCNc1nc(=O)n(C2CC(O)C(CO)O2)cc1F (stereo unspecified) | – | 25.4
CSc1ncc2c(n1)-c1ccccc1OC2N1CCCC1 (stereo unspecified) | – | > 100
CC[N+](CCCCCCCCCC[N+](CC)(c1ccccn1)c1ccccn1)(c1ccccn1)c1ccccn1 | 3.19 µM | 17.1
O=c1oc2ccccc2c(O)c1/C=N\c1nc(-c2ccccc2)cs1 | – | > 100
Cc1cc(/C=C2\SC(=Nc3ccccc3)N(C3CCCC3)C2=O)c(C)n1-c1ccc(Cl)cc1 | > 100 µM | > 100
CCCCCCCCCCCCCCCCCCOCC(O)COP(=O)(O)OCC1OC(n2cc(F)c(=O)[nH]c2=O)CC1O (stereo unspecified) | – | 25.2
C=CCNC(=S)N1CC(C)C(=O)Nc2ccccc21 (stereo unspecified) | – | > 100
Cc1nc2ccc(C(F)(F)F)cc2nc1Nc1ccc(Cl)c(Cl)c1 | – | 25.4
O=C(NCCO)c1ccc(Cl)cc1 | – | > 100
COc1ccc(/C=C/c2cc(OC)c(OC)c(OC)c2)cc1NC(=O)/C=C/c1ccc(F)cc1 | 6.84 µM | > 100
Oc1ccc(N=Nc2ccc(Cl)cc2)cc1 | – | 37.3
C=CCc1cc2cccc(OC)c2oc1=O | – | > 100
COP1(=O)CC2C(Cl)(Cl)C2(C)C1 (stereo unspecified) | – | > 100
O=C1[C@@H]2Cc3c([nH]c4ccccc34)C(C3CCCCC3)N2C(=O)[C@@H]2CCCN12 (stereo partly specified) | – | > 100

SMILES | GI50 | TGI [µM]
COc1cc(OC)c(/C=C/c2ccc3ccccc3[n+]2C)c(OC)c1 | 2.4 µM | 13
C/C=C/[C@H]1O[C@@](OC)([C@@H](C)[C@H](O)[C@H](C)[C@H]2OC(=O)/C(OC)=C/C(C)=C/[C@@H](C)[C@@H](O)[C@@H](C)[C@@H](O)[C@H](C)C/C(C)=C/C=C/[C@@H]2OC)CC(OC2CC(O)C(OC(N)=O)C(C)O2)[C@@H]1C (stereo partly specified) | – | 21.2
CN1CC(c2ccccc2)N(CCCCN2CC(c3ccccc3)N(C)CC2c2ccccc2)CC1c1ccccc1 (stereo unspecified) | – | > 100
COc1cc(/C=C/c2cc(C(F)(F)F)[nH]c(=O)n2)ccc1OCc1ccccc1F | 8.23 µM | 22.3
COc1cc2nc(-c3ccc(C(F)(F)F)cc3)cc(OCCCN3CCOCC3)c2cc1OC | 10.5 µM | 22.6
CC(=O)NC(CCCCNC(=O)OCc1ccccc1)C(=O)NCc1ccccc1 (stereo unspecified) | – | > 100
O=C1C=C(c2c(O)ccc3ccccc23)c2ccccc2C1=O | – | 30
COC(=O)C(COC(=O)/C=C/c1ccc(OC(C)=O)c(OC(C)=O)c1)OC(=O)/C=C/c1ccc(OC(C)=O)c(OC(C)=O)c1 (stereo unspecified) | – | 30.6
Cc1ccc(C(=O)c2oc3ccc4c(C)cc(=O)oc4c3c2C)cc1 | 45.9 µM | > 100
O=c1ccn(C2OC(CO)C(O)C2O)c(=O)[nH]1 (stereo unspecified) | > 1000 µM | > 1000
OC1OC(c2ccco2)C(F)(F)C(F)(F)C1(F)F (stereo unspecified) | – | > 100
CCOC(=O)C(O)(NC(C)=O)C(F)(F)F (stereo unspecified) | – | > 100
COC(=O)[C@@H]1N2C(=S)N(c3ccccc3)C(=O)[C@H]2SC1(C)C | – | > 100
CCOC(=O)C(C(=O)Cc1ccccc1)c1ccccc1 (stereo unspecified) | – | > 100
CCOC(=O)C1=C(C)NC(=S)NC1c1cccc(O)c1 (stereo unspecified) | – | > 100
COc1cccc(-c2nc3sccn3c2-c2ccnc(NCCNC(=O)Nc3cccc(C(F)(F)F)c3)n2)c1 | 7.23 µM | > 100
COc1ccc(-c2c(C3=NCCN3)nnn2-c2ccccc2)cc1 | – | > 100
